Experimental data taken from PubChem BioAssay AID463173 (ICCB-Longwood Screening Facility, Harvard Medical School, 2010).
The campaign covered roughly 52,000 compounds. About 1,700 (3.3%) were called active. Rule as the data show it: active = survival mostly below about 52% (no sharp cut-off); inactive = mostly above about 56%. Some of the results follow.

What follows are molecules tested on Wild type (assay: growth inhibition of S. aureus wild type versus tarO mutant, primary screen, teichoic acid synthesis inhibitors, RN4220, OD600 (AID 463173)). Conditions: S. aureus RN4220 wild type/DeltatarO growth, OD600, 18 h, hits give low values, screened at 18.75 µg/mL (by protocol).

| Compound | survival |
| --- | --- |
| CCC(=O)N1CCc2cc(CNC(=O)c3ccc(OC)cc3)ccc21 | inactive: 127% |
| Cn1c(=O)c(=O)n(C)c2cc(N3CCCC3)c(NC(=O)c3ccccc3F)cc21 | inactive: 93% |
| O=C(Nc1sc2c(c1C(=O)Nc1cccc(Cl)c1)CCCC2)c1cccs1 | inactive: 140% |
| Cc1ccc(NC(=O)CSc2nc(=O)n(Cc3ccco3)c3c2CCC3)cc1F | inactive: 71% |
| CC1Cc2ccccc2N1S(=O)(=O)c1nnc(NC(=O)c2cccc(F)c2)s1 (centres undefined) | active: 10% |
| CCC(=O)N1CCc2cc(CNC(=O)Cc3ccc(F)cc3)ccc21 | inactive: 82% |
| CCOc1cccc(C(=O)Nc2ccc(Cl)cn2)c1 | inactive: 97% |
| CCOc1ccc(-c2nnc(SCC(=O)Nc3ccc(C)cc3Cl)o2)cc1 | inactive: 126% |
| Cc1ccc2c(c1)-c1onc(C(=O)N3CCN(c4cc(Cl)ccc4C)CC3)c1CO2 | inactive: 83% |
| COC(=O)c1ccccc1NC(=O)c1cc(CN2CCCC2)on1 | inactive: 83% |
| Cc1ccc(NC(=O)c2cc(S(=O)(=O)NC3CCCCC3)ccc2F)cc1Cl | active: -6% |
| O=C(NC1CCCC1)C(c1ccsc1)N(C(=O)Cc1cccs1)c1ccccc1 (centres undefined) | inactive: 110% |
| CCn1nnc2cc(C(=O)Nc3ccc(C)c(Cl)c3)ccc21 | inactive: 53% |
| COc1ccc(OC)c(CCNC(=O)c2cnn(-c3ccc(C)cc3C)c2C2CCN(C(=O)OC(C)(C)C)CC2)c1 | inactive: 88% |
| CCOC(=O)c1c(NC(=O)COc2ccc(C)cc2C(C)(C)C)sc2c1CCC(C)C2 (centres undefined) | inactive: 67% |
| Cc1c(C(=O)N2CCC(C)CC2)c(S(=O)(=O)Nc2cccc(C(F)(F)F)c2)c(C)n1C | inactive: 78% |
| Cc1nn(S(=O)(=O)c2ccc(C(C)(C)C)cc2)c(C)c1S(=O)(=O)N1CCC(C)CC1 | inactive: 76% |
| COc1ccc(CNC(=O)Cn2c(=O)ccc3cc(S(=O)(=O)N4CCCC4)ccc32)cc1 | inactive: 82% |
| Cc1ccc(Cn2c(CNC(=O)Cc3cccc(C)c3)nc3cccnc32)cc1 | inactive: 71% |
| CC(=O)c1ccc(N2CCN(S(=O)(=O)c3cc(-c4noc(C)n4)ccc3C)CC2)cc1 | inactive: 133% |
| COCCN1C(=O)c2oc3ccc(C)cc3c(=O)c2C12C(=O)N(C)c1ccccc12 (centres undefined) | inactive: 82% |
| COC(=O)c1cc2oc3ccccc3c2n1Cc1nc(-c2cccc(C)c2)oc1C | inactive: 72% |
| COc1ccc2[nH]cc(CCNC(=O)c3cnn(-c4ccc(C)cc4)c3C3CCN(C(=O)OC(C)(C)C)CC3)c2c1 | inactive: 97% |

| Compound | survival |
| --- | --- |
| COCC(=O)Nc1cccc(-c2nc3cccnc3s2)c1 | inactive: 82% |
| COc1ccccc1CNC(=O)c1cnc(SC)nc1C | inactive: 73% |
| CC(C)N(Cc1ccccc1)C(=O)C1CCCN(c2ncnc3onc(-c4ccc(F)cc4)c23)C1 (centres undefined) | inactive: 71% |
| Cc1cc(-c2ccc(S(=O)(=O)N3CCN(c4ccc(Cl)cc4)CC3)s2)on1 | inactive: 136% |
| COc1ccc(-c2nc3scc(CCNC(=O)c4cccc(Br)c4)n3n2)cc1 | inactive: 72% |
| COc1ccc(NC(=O)c2sc3nc4c(c(-c5ccc(OC)cc5)c3c2N)C(=O)CC(C)(C)C4)cc1 | inactive: 71% |
| CCOC(=O)c1ccc(N2C(=O)c3[nH]nc(-c4ccc(OCC)cc4)c3C2c2cccs2)cc1 (centres undefined) | inactive: 100% |
| CC(C)OC(=O)CSc1nnc(-c2ccccc2)n1Cc1ccco1 | inactive: 107% |
| CCOC(=O)c1ccc(NC(=O)CC2Nc3ccccc3NC2=O)cc1 (centres undefined) | inactive: 62% |
| O=C(Nc1cc(-c2nc3cc(Cl)ccc3o2)ccc1Cl)c1cc([N+](=O)[O-])ccc1N1CCOCC1 | inactive: 67% |
| Cc1ccc(-c2nnc(Nc3ccc(F)cc3)c3ccccc23)cc1S(=O)(=O)N1CCN(C)CC1 | inactive: 79% |
| Cc1ccc(CNCc2cccn2-c2nnc(N3CCCC3)s2)cc1 | inactive: 75% |
| O=C(c1ccccc1Cl)N1CCCCC1CCN1CCOCC1 (centres undefined) | inactive: 95% |
| CCOc1cccc2c1Oc1nc(-c3ccccc3)nc(SCC(=O)Nc3ccc(F)cc3)c1C2 | inactive: 86% |
| CC(C)CC(NC(=O)c1ccco1)C(=O)O (centres undefined) | inactive: 95% |
| O=C(NCCc1ccc(Cl)cc1)c1ccc(CSCc2ccc(Cl)cc2)o1 | inactive: 72% |
| Clc1ccccc1-c1nnc(SCc2nc(-c3ccccc3)no2)n1-c1ccccc1 | inactive: 50% |
| COc1ccc(N2CCN(C(=O)Nc3ccccc3Cl)CC2)cc1 | inactive: 134% |
| COc1ccc(Cn2c(CCC(=O)Nc3ccc(OC)c(Cl)c3)nc3cccnc32)cc1 | inactive: 144% |
| CCOc1ccc(NC(=O)CCC(=O)N2CCSc3ccccc32)cc1 | inactive: 87% |
| CCCC(=O)n1nc(-c2cccnc2)nc1NCc1ccccc1 | inactive: 83% |
| CCc1ccccc1NC(=O)Cn1c(=O)n(CCc2ccccc2)c(=O)c2ccccc21 | inactive: 106% |
| O=C(Nc1ccc2nc(SCC(=O)N3CCOCC3)sc2c1)c1cccc(F)c1 | inactive: 87% |

| Compound | survival |
| --- | --- |
| COc1ccc(NS(=O)(=O)c2c(C)nc3scc(C)n3c2=O)cc1 | inactive: 78% |
| COc1cccc(NC(=O)CSC2=Nc3ccccc3C3=NC(CC(=O)NCc4ccccc4OC)C(=O)N23)c1 (centres undefined) | inactive: 152% |
| CCCCNC(=O)CCSc1nc(-c2ccc3c(c2)OCO3)cc(C(F)(F)F)n1 | inactive: 85% |
| CCOC(=O)N1CCN(S(=O)(=O)N2CCCC(C(=O)NCc3ccc(OC)cc3OC)C2)CC1 (centres undefined) | inactive: 57% |
| O=c1oc2ccc(Cl)cc2cc1-c1cn2c(n1)sc1ccccc12 | inactive: 123% |
| O=C(NCc1cccnc1)c1c[nH]c2cc3c(cc2c1=O)OCCO3 | inactive: 105% |
| COC(=O)c1scc(-c2ccccc2)c1S(=O)(=O)Nc1ccc(C)c(Cl)c1 | inactive: 87% |
| CCOc1ccc(NC(=O)c2c(NCc3cccs3)sc3c2CCCCC3)cc1 | inactive: 64% |
| Cc1ccnc2nc(NC(=O)c3ccccc3Cl)nn12 | inactive: 87% |
| CCc1ccc2[nH]c(=O)c(CN(Cc3ccco3)C(=O)c3ccccc3)cc2c1 | inactive: 108% |
| Cc1cccc(OCC(=O)N(Cc2ccc(N(C)C)cc2)Cc2ccco2)c1C | inactive: 78% |
| COc1ccc(C2C=C(c3ccccc3)Nc3nc(NC(=O)/C=C/c4ccccc4OC)nn32)cc1 (centres undefined) | inactive: 75% |
| CCOC(=O)c1cc2sc(C)cc2n1CC(=O)N1CCCCC1C (centres undefined) | inactive: 105% |
| Cc1cccc(N(CC(=O)N(C)Cc2ccccc2)S(=O)(=O)c2ccccc2)c1C | inactive: 77% |
| CCC(=O)N1CCc2cc(Br)cc(S(=O)(=O)N3CCCC(C(=O)Nc4ccc(OC)cc4OC)C3)c21 (centres undefined) | inactive: 81% |
| CCc1ccc(S(=O)(=O)c2nnn3c2nc(NC(C)C)c2cc(Cl)ccc23)cc1 | inactive: 83% |
| COc1ccccc1CNC(=O)c1ccc(CS(=O)c2ccccc2Cl)o1 (centres undefined) | inactive: 83% |
| CC12CN3CC(c4ccccc4)(CN(C1)C3c1ccc(Cl)cc1)C2=O (centres undefined) | inactive: 90% |
| CC(=O)c1cc(-c2ccccc2)n(CCC(=O)NC2CCCCC2)c1C | inactive: 93% |
| COc1ccc(N2CCN(c3oc(/C=C/c4ccccc4OC)nc3C#N)CC2)cc1 | inactive: 86% |
| COc1ccc(NC(=O)C(=O)NCc2ccco2)c(OC)c1 | inactive: 145% |
| CC(C)Oc1ccc(CNC(=O)c2cccc(NC(=O)c3nsc4ccccc34)c2)cc1 | inactive: 77% |
| COc1ccc(OC)c(CNC(=O)C2CCN(S(=O)(=O)c3ccc4[nH]c(=O)oc4c3)CC2)c1 | inactive: 63% |

| Compound | survival |
| --- | --- |
| Nc1cccc(CN2CCCC2)c1 | inactive: 116% |
| CCOc1ccc(CC(=O)Nc2c(C(=O)c3ccc(F)cc3)oc3ccc(Cl)cc23)cc1OCC | inactive: 60% |
| Cc1cc(C)cc(NC(=O)N2CCC(N3CCN(Cc4ccccc4)C(=O)C3=O)CC2)c1 | inactive: 68% |
| O=C(Nc1ccc(C(=O)OCc2cc(=O)n3ccsc3n2)cc1)c1cccc(F)c1 | inactive: 73% |
| COc1ccc(Nc2c3c(nc4ccc(NC(=O)c5cc(Cl)ccc5OC)cc24)CCCC3)cc1OC | inactive: 90% |
| CN1CCN(S(=O)(=O)c2cccc(S(=O)(=O)c3ccc(Cl)c(Cl)c3)c2)CC1 | inactive: 102% |
| CCNC(=S)N1CCC(n2cnc3ccccc32)CC1 | inactive: 98% |
| Cn1c(C(=O)N2CCC(C(=O)N3CCN(c4ccccc4)CC3)CC2)cc2sccc21 | inactive: 80% |
| Cc1ccc(CNC(=O)c2c[nH]n3c(=O)c(Cc4ccc(F)cc4Cl)c(C)nc23)cc1 | active: -15% |
| Cc1nnc(N2CCN(c3cccc(C(F)(F)F)c3)CC2)c2c1nnn2Cc1ccccc1 | inactive: 88% |
| COc1ccc(N2Cc3cccc(C(=O)Nc4cccc(F)c4)c3C2=O)cc1 | inactive: 88% |
| Cc1ccc(-c2cc(NC(=O)C(C)Oc3ccccc3F)on2)cc1 (centres undefined) | inactive: 66% |
| CN(C)c1ccc(C(=O)Nc2ccc(-c3nc4ccccc4o3)cc2)cc1 | inactive: 103% |
| Cc1cc(NC(=O)C2CCCN(S(=O)(=O)c3cn(C)cn3)C2)ccc1Br (centres undefined) | inactive: 81% |
| Cc1noc2ncnc(NCc3ccc(Cl)cc3)c12 | inactive: 135% |
| CC(C)NC(=O)CSc1nc2ccccc2n1CC(=O)NC(C)C | inactive: 112% |
| CCOC(=O)c1ccc(-c2ccc(/C=C(\C#N)C(=O)NCc3cccs3)o2)cc1 | inactive: 110% |
| CCOC(=O)c1ccc(N2C(=O)c3n[nH]c(-c4cccs4)c3C2c2ccc(OC)cc2OC)cc1 (centres undefined) | inactive: 92% |
| O=C(Nc1nc2c(s1)CCCC2)c1ccccc1F | inactive: 73% |
| CC(C)c1ccc(C2=NC(c3ccncc3)=Nc3ccc(F)cc3N2)cc1 | inactive: 84% |
